# From PubChem BioAssay AID1347073 (National Center for Advancing Translational Sciences (NCATS), 2019)
# Out of some 45,000 compounds screened, about 200 (0.44%) were called active. This list was built around the results that the source calls inconclusive (neither active nor inactive); the mix of calls is not that of the screen. Calls come from the whole dose curve; as a rule, active = well fitted activation curve with a large enough effect; inconclusive = small, poorly fitted or top-dose-only effect; inactive = no such curve, though single readings can be large or run the other way. Potencies beside an inconclusive call are fits to weak or partial responses and may not hold up.
# Assay: qHTS of TDP-43 Inhibitors: NCGC Sytravon Library Screen; note: nearly all actives have a fitted effect of over 55% in size; for growth rescue (activation): 0% is about no effect
# Settings: yeast TDP-43 toxicity rescue, BacTiter-Glo growth, 24 h; growth rescue (activation): at 46.1 µM (top of the series)
# Procedure, shortened: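 TDP-43-expressing yeast, pregrown in raffinose, seeded at OD600 0.02 in galactose medium with compound for 24 hr at 30 deg C. Growth read by BacTiter-Glo luminescence, so rescue of toxicity appears as activation.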
# Potency is the fitted concentration of half-maximal effect; tags give direction and shape of the fitted curve.
Compound,Potency,growth rescue (activation)
O=C(COc1ccccc1Cl)NCCc1ccc2c(c1)OCCO2,"inconclusive: 12.6 µM [activator, partial curve, poor fit]",–
CC(C)Cn1cnc2c(c1=N)C(c1ccccc1)C1=C(CC(C)(C)CC1=O)O2 (configuration not stated),"inconclusive: 15.8 µM [activator, single point]",–
COc1ccc(-n2c(SCc3ccc([N+](=O)[O-])cc3)nnc2-c2ccccc2)cc1,"inconclusive: 35.5 µM [activator, single point]",–
Cc1ccc(Nc2c3c(nc4nncn24)CCC3)cc1C,"inconclusive: 12.6 µM [activator, partial curve, poor fit]",–
CC(CC(=O)NNC(=O)c1cccc(Cl)c1)c1ccccc1 (configuration not stated),inactive,–
CCN(CC)C(=O)c1ccc(-c2ccccc2)cc1,"inconclusive: 12.6 µM [activator, partial curve, poor fit]",–
COc1ccc(C(=O)N2CCOC23CCN(c2ncccn2)CC3)cc1,–,inconclusive: -47.6% [activator]
CN(C)/C=C/C(=O)c1cnc2sccn2c1=O,"inconclusive: 35.5 µM [activator, single point]",–
Cc1cscc1-c1nc(NCC2CC2)nc2ccsc12,"inconclusive: 12.6 µM [activator, partial curve]",–
CN(C)c1ccc(N=Nc2ccccc2C(=O)OCC(=O)N2CCCCCC2)cc1,"inconclusive: 22.4 µM [activator, single point]",–
COc1ccccc1N(C)S(=O)(=O)c1ccc(C(=O)Nc2cc(F)ccc2C)cc1,–,inconclusive: 34.6% [activator]
CCN(CC)c1cc(C)c2cc(NC(=O)c3ccccc3OC)ccc2n1,inactive,–
COc1ccc(/C=C2\C(=O)ON=C2c2ccccc2)cc1,"inconclusive: 31.6 µM [activator, single point]",–
Cc1ccc(S(=O)(=O)N/N=C2/CCCCC2C2CCCCC2)cc1[N+](=O)[O-] (configuration not stated),"inconclusive: 31.6 µM [activator, single point]",–
COc1cc(C(C)=O)ccc1COc1ccc(C(=O)OC(C)C(=O)NC(N)=O)cc1OC (configuration not stated),inactive,–
COc1cccc(Cn2c(=O)sc3ccccc3c2=O)c1,"inconclusive: 14.1 µM [activator, partial curve, poor fit]",–
O=C(Nc1ccccc1)C1Cc2c(-c3ccccc3Oc3ccccc3)ccnc2O1 (configuration not stated),"inconclusive: 20 µM [activator, partial curve]",–
Cc1c(C(=O)N2CC(C)OC(C)C2)[nH]c2ccc(Br)cc12 (configuration not stated),"inconclusive: 20 µM [activator, single point]",–
CC(C)COc1cccc(C(=O)NC(=S)NCc2cccnc2)c1,"inconclusive: 12.6 µM [activator, partial curve, poor fit]",–
CCCCn1nc(C(=O)Nc2ccc3c(c2)OCO3)c2ccccc2c1=O,"inconclusive: 14.1 µM [activator, partial curve]",–
CC(C)(C)c1ccc(S(=O)(=O)NC(=O)C2(C)CCN2C(=O)Cc2ccc(Cl)cc2Cl)cc1 (configuration not stated),–,inconclusive: 50.6% [activator]

Compound,Potency,growth rescue (activation)
c1ccc2c(c1)oc1c(NCc3ccc4c(c3)OCO4)ncnc12,"inconclusive: 2.82 µM [activator, full curve, poor fit]",–
O=C(COC(=O)c1ccc2c(c1)OCO2)Nc1ncc(Cl)cc1Cl,"inconclusive: 12.6 µM [activator, partial curve, poor fit]",–
CC(C)CCNC(=S)Nc1ccccn1,"inconclusive: 15.8 µM [activator, partial curve, poor fit]",–
CCOc1ccc(CNC(=O)c2cc3oc4ccccc4c3n2C)cc1,inactive,–
Cc1cccc(C(=O)NNC2=C(C(=O)C(F)(F)F)CCC2)c1O,"inconclusive: 35.5 µM [activator, single point]",–
O=C(O)Cc1coc2ccc3ccccc3c12,active: 12.6 µM,–
Cc1ccccc1C(=O)NC(=S)NCCc1ccccc1,"inconclusive: 20 µM [activator, partial curve, poor fit]",–
CCC(CC)C(=O)N(C)c1c(C)nc2c(OCc3ccccc3C(=O)OC)cccn12,inactive,–
CCOc1ccc(/C(O)=C2/C(=O)C(=O)N(c3nc(C)c(C)s3)C2c2ccco2)cc1 (configuration not stated),"inconclusive: 3.16 µM [activator, full curve]",–
CCCOC(=O)c1cccc(Nc2nc(-c3cccnc3)nc3ccccc23)c1,"inconclusive: 20 µM [activator, partial curve, poor fit]",–
Cc1sc(N/N=C/c2cccs2)nc1-c1ccccc1,"inconclusive: 14.1 µM [activator, partial curve, poor fit]",–
Cc1ccc(S(=O)(=O)N2CCCCC2)cc1NC(=O)CSc1nnc(C2CC2)n1N,"inconclusive: 11.2 µM [activator, partial curve, poor fit]",–
O=C(NCc1cccs1)C1Cc2c(-c3ccccc3Oc3ccccc3)ccnc2O1 (configuration not stated),"inconclusive: 35.5 µM [activator, single point]",–
O=C(CCS(=O)(=O)c1ccccc1)N1CCN(c2cccc(C(F)(F)F)c2)CC1,"inconclusive: 11.2 µM [activator, partial curve]",–
COCCCNC(=S)N(Cc1ccccc1)Cc1ccc(F)cc1,"inconclusive: 20 µM [activator, partial curve, poor fit]",–
Cc1[nH]c2ccccc2c1C(C[N+](=O)[O-])c1cccc(O)c1 (configuration not stated),inactive,–
COc1ccc(-c2cc(C(=O)Oc3ccc(C)c(C)c3)c3ccccc3n2)cc1,inactive,–
CN=c1scc(-c2ccccc2F)n1/N=C/c1ccc[nH]1,inactive,–
CCOc1ncccc1C(=O)N(CCC(C)C)c1c(N)n(Cc2ccccc2)c(=O)[nH]c1=O,–,inconclusive: -40.6% [activator]
O=C(COc1ccc2c(c1)OCO2)NCc1cccs1,"inconclusive: 31.6 µM [activator, partial curve, poor fit]",–
CCCCn1c(=S)[nH]c2ccccc2c1=O,"inconclusive: 11.2 µM [activator, partial curve, poor fit]",–
